The record followed here is US20020133846A1, “Method for protecting plants” (priority 1996, published 2002).

SMILES strings stand for the structures.

The test concerns Pseudomonas syringae DC3000. As to the kind of experiment: Infection with Pseudomonas syringae DC3000 in Arabidopsis, Example 17. Particulars: day 0 or day 2. The text has this:
In addition to resistance to the fungal pathogen P. parasitica, cim3 was also resistant to infection with the bacterial pathogen Pseudomonas syringae DC3000. Six-week-old wild-type (±INA treatment), and cim3 plants were inoculated with a suspension of P. syringae DC3000 and the progress of the disease was followed by monitoring the growth of the bacteria extracted from infected leaves over time. […] However, by day four, there was a 31-fold decrease in bacterial growth between wild-type and cim3 plants (P<0.003; Sokal and Rohlf, 1981). The plants were also visually inspected for disease symptoms. Leaves from wild-type plants were severely chlorotic with disease symptoms spreading well beyond the initial zone of injection.
For this example, cultures of Pseudomonas syringae pv. tomato strain DC3000 were grown on King's B media (agar plates or liquid) plus rifampicin (50 jig/ml) at 28° C. (Walen et al. (1991) Plant Cell 3, 49-59). An overnight culture was diluted and resuspended in 10 mM MgCT2 to a density of 2-5×10^5 cells per ml and injected into Arabidopsis leaves. […] Bacterial colonies were counted and the data were subjected to Student's t statistical analysis (Sokal and Rohlf (1981), Biometry, 2nd ed. New York: W.H. Freeman and Company). […]

For the compound `O=C(O)c1cc(Cl)nc(Cl)c1` [INA, 2,6-dichloroisonicotinic acid], the “difference in bacterial titers between Col-O, Col-O + INA and cim3” value is “not statistically significant”.
